Laboratory results from the RNAGym collection of RNA variant scans (doi:10.1073/pnas.2313332121).
Variants at the background level are over-represented here.

B1: TPR 5TU (parent)
chain: GGAUCUUCUCGAUCUAACAAAAAAGACAAAUCUGCCACAAAGCUUGAGAGCAUCUUCGGAUGCAGAGGCGGCAGCCUUCGGUGGCGCGAUAGCGCCAACGUUCUCAACUAUGACACGCAAAACGCGUGCUCCGUUGAAUGGAGUUUAUCAUG

Variants of: B1
Test: polymerase ribozyme fitness, log enrichment relative to wild type (log ratio); higher = more active; in vitro selection for triplet polymerase activity
Summary of the method: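 Mutant libraries for each subunit of a heterodimeric triplet polymerase ribozyme were made by PCR and then transcribed. Each library underwent one round of in vitro selection in triplicate: annealing with a biotinylated primer, the partner subunit and triplets, frozen incubation at −7 °C, gel excision of extended constructs, streptavidin-bead capture and RT-PCR. Input and output libraries were Illumina-sequenced, and only genotypes with ≥10 input reads and ≥1 read per output were kept. Fitness is the logarithm, base 2, of genotype enrichment over wild-type enrichment, computed from inverse-variance-weighted replicate averages.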

Variant	polymerase ribozyme fitness (log ratio)
U56C C76A A122G	-0.262
U56A C75G C87G	≤ -4.2
G58C C87A C95A C116A	≤ -4.2
G58C G59C C79G C103G G143U	≤ -4.2
C57A G58A C79U G88U	≤ -4.2
U56A U90G G141A A150G	≤ -4.2
C57A C105U	1.29
U56A C87U C105A U111A C132U G141A	≤ -4.2
G58A G65C C85U A119G G128A U134A G141A A150G	≤ -4.2
G59C C63U C87U A107U	-3.81
U56A C85U A142U	-1.06
C57U C93A G126C	-0.766
C57A A73U A91U	≤ -4.2
G59A G74A G83A	≤ -4.2
U56A C79G U146C U148A	≤ -4.2
G58U U82A G84U	-0.648
G58C G70C G141A	≤ -4.2
U56C C57U A89U C95G A137C	-4.07
U56A U77A C125U A147C	≤ -4.2
C57A C93G	-3.05
C57U U102A C103U	-1.15

Variant	polymerase ribozyme fitness (log ratio)
C57U C85U G143A	-0.317
G59C G68C G70U G140U	≤ -4.2
U56A G88C C95U	≤ -4.2
U56C G59A G92U U135A	-2.19
U56A U77G C85A	≤ -4.2
C57U C87A C96A A113C C132A	≤ -4.2
C57G G92U	-0.526
G59U G68A U78C C93G G124A C131G G141U	≤ -4.2
G58C G88U C129A G141U	≤ -4.2
G59A C85U U102G A106C G141A	≤ -4.2
G59C C79U C93A G141A	≤ -4.2
C57G C75U C108A A110G	≤ -4.2
C57G C72G C79U C103G	≤ -4.2
U56A G71U C93G A119U A122U	≤ -4.2
C57U G126C	0.553
G59A U90C C105G A106C	≤ -4.2
C57U G67C U78G C103U	≤ -4.2
G59A G136C	-2.89
G58C G136C G140A	≤ -4.2
C57G G65A U134C	-1.35
C57G A98U	-0.592

Variant	polymerase ribozyme fitness (log ratio)
C57A A60G G74U	-4.12
G59C G68A C85A U151C	≤ -4.2
C57A A60C G84A G92A C118A	≤ -4.2
G58U A64U C85U	≤ -4.2
G58A C72U C76A	-1.3
U56C G83C C85G C87A C108U U111G A150G	≤ -4.2
U56G G94A A110U A138U U139A	≤ -4.2
C57A A64G A66G C118U A147C G152U	≤ -4.2
G58C C63U A120C	-0.534
U56A U82C C93U	-1.41
G58C C87G A98G	≤ -4.2
U56A G59C U139A	≤ -4.2
U56A G92U C105U C114A U144G	≤ -4.2
G58A A73G C116U	0.431
C57U C75U A107U U127C A150G	≤ -4.2
G59A G86U	-1.84
C57U C76U G81C C95U U130G	≤ -4.2
G59A G80U G84C G140U	≤ -4.2
G58A G83C G84C G126C G133C	≤ -4.2
G58U C69G C87G	≤ -4.2
C57A G100C	≤ -4.2

Variant	polymerase ribozyme fitness (log ratio)
G59C U127G U130C	≤ -4.2
G58C G84U G136U	-3.72
G58A C85G G100U U144A	≤ -4.2
G59A G92U C93G C114A	≤ -4.2
G59A G71A G141C	≤ -4.2
C57U C87G	≤ -4.2
U56A C96A C103U	0.293
G58U C87U C125G	-0.741
C57U U82A C93A G112U C116U	≤ -4.2
C57U C76A C93U C116A U151G	≤ -4.2
C57G G62A A91U	≤ -4.2
G58C C79A G86A U146C	≤ -4.2
U56A U130A A147C	-3.18
C57U U82G C87U A97U G128A G136U	≤ -4.2
G59U C93U C114G	-3.92
G58U U78G C79U G80A C85U C96U A106G A147C	≤ -4.2
G59A A64C G88C	≤ -4.2
G59C C72A C95U G100A G141C	≤ -4.2
U56G G92U A97U C105U	-1.61
U56A C69A U77G G83U C105G	≤ -4.2
U56A A91G	-3.41
